Source: US20150051171A1, “TETRAZOLINONE COMPOUNDS AND ITS USE AS PESTICIDES” (SUMITOMO CHEMICAL COMPANY, LIMITED, priority 2012, published 2015)
Read-outs that look alike come from different tables or passages of the source.

Legend:
Assay type in all cases: in vivo
[1] = test system: tomato late blight fungi (Phytophthora infestans); conditions: tomato (cv; Patio), inoculated after drying
[2] = test system: wheat rust fungi (Puccinia recondita); assay: Wheat rust control on wheat, foliar spray after inoculation (Test Example 7); conditions: 200 ppm foliar spray 1 day after inoculation, wheat (cv; Shirogane), observed after 8 days
Description: Thereafter, to the wheat were sprinkling-inoculated the spores of wheat rust fungi (Puccinia recondita). The wheat was placed under a dark and humid condition at 23° C. for 1 day and was air-dried.

[3] = test system: barley net blotch fungi (Pyrenophora teres); assay: Barley net blotch control on barley, foliar spray before inoculation (Test Examples 8-10, Comparative Test Example); conditions: 50 ppm foliar spray, barley (cv; Mikamo Golden), inoculated 2 days after spraying
[4] = test system: powdery mildew fungi (Sphaerotheca fuliginea); assay: Cucumber powdery mildew control, foliar spray before inoculation (Test Examples 17-19); conditions: 50 ppm foliar spray, cucumber (cv; Sagamihanjiro), observed 8 days after inoculation
[5] = test system: wheat leaf blotch fungi (Septoria tritici); assay: Wheat leaf blotch control on wheat, foliar spray before inoculation (Test Examples 13-15); conditions: 50 ppm foliar spray, wheat (cv; Apogee), inoculated 4 days after spraying

Cc1cccc(-n2nnn(C)c2=O)c1COc1ccn(-c2ccc(Cl)cc2)n1 [Present compound 12, 1-(2-{[1-(4-chlorophenyl)-1H-pyrazole-3-yl]oxymethyl}-3-methylphenyl)-4-methyl-1,4-dihydrotetrazole-5-one]
lesion area compared to the lesion area in untreated plants ([1]; 50 ppm foliar spray (flowable)): ≤ 30%
lesion area compared to the lesion area in untreated plants [2]: ≤ 30%

C/C=C/c1cccc(-n2nnn(C)c2=O)c1COc1ccn(-c2ccc(Cl)cc2)n1 [Present compound 35, 1-(2-{[1-(4-chlorophenyl)-1H-pyrazole-3-yl]oxymethyl}-3-(1-propenyl)phenyl)-4-methyl-1,4-dihydrotetrazole-5-one]
lesion area compared to the lesion area in untreated plants [3]: ≤ 30%

COc1cccc(-n2nnn(C)c2=O)c1COc1ccn(-c2ccc(Cl)cc2)n1 [Present compound 26, 1-(2-{[1-(4-chlorophenyl)-1H-pyrazole-3-yl]oxymethyl}-3-methoxyphenyl)-4-methyl-1,4-dihydrotetrazole-5-one]
lesion area compared to the lesion area in untreated plants ([1]; 200 ppm foliar spray (flowable)): ≤ 30%

Cn1nnn(-c2cccc(C3CC3)c2COc2ccn(-c3ccc(Cl)cc3)n2)c1=O [Present compound 34, 1-(2-{[1-(4-chlorophenyl)-1H-pyrazole-3-yl]oxymethyl}-3-cyclopropylphenyl)-4-methyl-1,4-dihydrotetrazole-5-one]
lesion area compared to the lesion area in untreated plants [4]: ≤ 30%

CSc1ccc(-n2ccc(OCc3c(C)cccc3-n3nnn(C)c3=O)n2)cc1 [Present compound 19, 1-(2-{[1-(4-methylthiophenyl)-1H-pyrazole-3-yl]oxymethyl}-3-methylphenyl)-4-methyl-1,4-dihydrotetrazole-5-one]
lesion area compared to the lesion area in untreated plants [5]: ≤ 30%

Cn1nnn(-c2ccccc2COc2ccn(-c3ccc(F)cc3)n2)c1=O [control compound, 1-(2-{[1-(4-fluorophenyl)-1H-pyrazole-3-yl]oxymethyl}phenyl)-4-methyl-1,4-dihydrotetrazole-5-one, reference compound]
lesion area compared to the lesion area in untreated plants [3]: ≥ 70%
